Shown are siRNA guide strands that differ only in the seed, positions 2 to 7.
Legend:
[1] = system: GL261; assay: cell viability relative to siNT1 (ATP content); H4 human neuroglioma and GL261 mouse glioma; higher = less toxic; conditions: siRNA concentration 25 nM; 96 h; mouse
Procedure: (§1)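 Arrayed screen of all 4096 6mer seeds. Each seed sits at guide-strand positions 2-7 of a neutral 19mer siRNA backbone (siNT1-based, passenger strand 2'-O-methyl modified at positions 1-2 to block RISC loading, 3' DNA overhangs). The guide strand is built here as U + seed + ACAUGUAAACCA. Cells were reverse transfected in triplicate in 384-well plates (H4 at 10 nM, GL261 at 25 nM) with Lipofectamine RNAiMAX. Viability was read as ATP content (CellTiter-Glo) 96 h after transfection and normalised to siNT1 (%).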

[2] = system: H4; assay: as above; conditions: siRNA concentration 10 nM; 96 h; human
Procedure: as §1
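Further: cells reverse transfected with siRNA duplexes via lipid reagent, ATP read by luminescence, triplicate wells, values scaled to mean viability with non-targeting control siNT1.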

| Sequence | cell viability [1] | cell viability [2] |
| --- | --- | --- |
| UAAUACUACAUGUAAACCA | 49% | 73.9% |
| UAAUAGAACAUGUAAACCA | 54.8% | 106% |
| UAAUAGCACAUGUAAACCA | 26.7% | 60.7% |
| UAAUAGGACAUGUAAACCA | 34.7% | 98.9% |
| UAAUAGUACAUGUAAACCA | 8.55% | 82.3% |
| UAAUAUAACAUGUAAACCA | 57.6% | 87.1% |
| UAAUAUCACAUGUAAACCA | 32.4% | 102% |
| UAAUAUGACAUGUAAACCA | 56.6% | 102% |
| UAAUAUUACAUGUAAACCA | 60.6% | 108% |
| UAAUCAAACAUGUAAACCA | 55.2% | 88.9% |
| UAAUCACACAUGUAAACCA | 52.3% | 78.9% |
| UAAUCAGACAUGUAAACCA | 60% | 93.1% |
| UAAUCAUACAUGUAAACCA | 48.9% | 77.9% |
| UAAUCCAACAUGUAAACCA | 64.3% | 92.7% |
| UAAUCCCACAUGUAAACCA | 17.7% | 39.4% |
| UAAUCCGACAUGUAAACCA | 58.9% | 79.5% |
| UAAUCCUACAUGUAAACCA | 27.7% | 61.7% |
| UAAUCGAACAUGUAAACCA | 80.2% | 86.5% |
| UAAUCGCACAUGUAAACCA | 27.5% | 70.5% |

| Sequence | cell viability [1] | cell viability [2] |
| --- | --- | --- |
| UAAUCGGACAUGUAAACCA | 64.2% | 82.3% |
| UAAUCGUACAUGUAAACCA | 63.2% | 86.7% |
| UAAUCUAACAUGUAAACCA | 66.9% | 113% |
| UAAUCUCACAUGUAAACCA | 63% | 89.9% |
| UAAUCUGACAUGUAAACCA | 80% | 80.4% |
| UAAUCUUACAUGUAAACCA | 53.7% | 109% |
| UAAUGAAACAUGUAAACCA | 63.3% | 97.6% |
| UAAUGACACAUGUAAACCA | 12.3% | 64.3% |
| UAAUGAGACAUGUAAACCA | 43.5% | 70.9% |
| UAAUGAUACAUGUAAACCA | 35.2% | 66% |
| UAAUGCAACAUGUAAACCA | 37.4% | 100% |
| UAAUGCCACAUGUAAACCA | 10.4% | 66.8% |
| UAAUGCGACAUGUAAACCA | 42.8% | 120% |
| UAAUGCUACAUGUAAACCA | 13.9% | 80% |
| UAAUGGAACAUGUAAACCA | 55.6% | 110% |
| UAAUGGCACAUGUAAACCA | 15.1% | 50.2% |
| UAAUGGGACAUGUAAACCA | 37.1% | 62.4% |
| UAAUGGUACAUGUAAACCA | 37.4% | 62.7% |
| UAAUGUAACAUGUAAACCA | 57.9% | 106% |

| Sequence | cell viability [1] | cell viability [2] |
| --- | --- | --- |
| UAAUGUCACAUGUAAACCA | 25.4% | 109% |
| UAAUGUGACAUGUAAACCA | 35.1% | 91.3% |
| UAAUGUUACAUGUAAACCA | 27.7% | 74.6% |
| UAAUUAAACAUGUAAACCA | 63.7% | 109% |
| UAAUUACACAUGUAAACCA | 50.5% | 58.1% |
| UAAUUAGACAUGUAAACCA | 53.3% | 92.5% |
| UAAUUAUACAUGUAAACCA | 60.6% | 58.9% |
| UAAUUCAACAUGUAAACCA | 53.2% | 91.8% |
| UAAUUCCACAUGUAAACCA | 28% | 33.1% |
| UAAUUCGACAUGUAAACCA | 59.9% | 103% |
| UAAUUCUACAUGUAAACCA | 42.2% | 77.2% |
| UAAUUGAACAUGUAAACCA | 69.3% | 96.4% |
| UAAUUGCACAUGUAAACCA | 19.3% | 44.6% |
| UAAUUGGACAUGUAAACCA | 30.3% | 58.1% |
| UAAUUGUACAUGUAAACCA | 40% | 61.5% |
| UAAUUUAACAUGUAAACCA | 72% | 101% |
| UAAUUUCACAUGUAAACCA | 38.9% | 91.3% |
| UAAUUUGACAUGUAAACCA | 62.1% | 97.1% |
